Data from article PMC4336329 (PLoS ONE, 2015).
About 2,200 (0.71%) of roughly 310,000 compounds showed an effect of 50% or more. Effects have a minus sign here. This is one part of the list.

Each molecule was assayed against human ether-à-go-go-related gene (hERG) potassium channel (human, UniProt Q12809) (assay: primary screen, population patch clamp on CHO cells stably expressing hERG).
Sequence of human ether-à-go-go-related gene (hERG) potassium channel (Q12809 whole entry, looked up): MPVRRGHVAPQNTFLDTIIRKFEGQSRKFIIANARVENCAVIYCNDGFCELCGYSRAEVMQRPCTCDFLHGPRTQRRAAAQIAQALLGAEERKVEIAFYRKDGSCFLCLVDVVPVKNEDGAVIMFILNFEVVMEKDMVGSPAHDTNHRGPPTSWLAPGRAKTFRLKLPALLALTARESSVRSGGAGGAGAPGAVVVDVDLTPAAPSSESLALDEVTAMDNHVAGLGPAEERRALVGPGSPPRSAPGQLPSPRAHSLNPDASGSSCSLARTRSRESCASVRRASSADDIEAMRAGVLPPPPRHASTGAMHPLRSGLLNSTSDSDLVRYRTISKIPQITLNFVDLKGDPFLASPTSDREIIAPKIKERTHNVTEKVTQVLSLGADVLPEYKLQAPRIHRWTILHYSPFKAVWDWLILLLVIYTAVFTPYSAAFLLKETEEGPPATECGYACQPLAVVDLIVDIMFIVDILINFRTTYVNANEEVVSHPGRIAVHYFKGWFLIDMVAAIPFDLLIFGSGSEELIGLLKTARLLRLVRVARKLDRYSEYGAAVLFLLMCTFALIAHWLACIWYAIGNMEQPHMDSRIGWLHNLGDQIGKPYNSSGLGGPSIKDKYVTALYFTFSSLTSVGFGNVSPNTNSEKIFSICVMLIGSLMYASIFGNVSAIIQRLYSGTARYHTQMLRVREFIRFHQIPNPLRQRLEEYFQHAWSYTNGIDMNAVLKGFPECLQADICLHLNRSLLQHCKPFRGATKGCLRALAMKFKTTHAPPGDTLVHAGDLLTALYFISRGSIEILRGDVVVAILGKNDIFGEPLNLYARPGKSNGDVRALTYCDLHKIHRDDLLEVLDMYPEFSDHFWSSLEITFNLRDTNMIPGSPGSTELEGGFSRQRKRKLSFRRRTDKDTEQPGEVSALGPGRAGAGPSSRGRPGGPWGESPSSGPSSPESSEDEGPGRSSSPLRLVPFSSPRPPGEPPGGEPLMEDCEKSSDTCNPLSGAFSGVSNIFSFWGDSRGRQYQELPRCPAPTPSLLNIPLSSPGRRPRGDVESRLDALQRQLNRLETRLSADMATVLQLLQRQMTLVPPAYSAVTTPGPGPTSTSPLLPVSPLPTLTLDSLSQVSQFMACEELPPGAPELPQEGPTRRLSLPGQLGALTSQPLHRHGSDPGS

| Compound | hERG current change (%, negative = inhibition) at 1uM [%] |
| --- | --- |
| c1ccc2c(c1)NCC1CCCN21 (centres unmarked) | 11.7 |
| NS(=O)(=O)c1ccc(N2N=C(c3ccccc3)CC2c2ccccc2)cc1 (centres unmarked) | 4.5 |
| Cc1ccc([N+](=O)[O-])cc1NC(=O)CN(C)CCOc1ccccc1.O=C(O)C(=O)O | 12.1 |
| CC1=C(C(=O)Nc2ccccc2)C(c2ccco2)C(C#N)=C(SCC(=O)Nc2cccc(C)c2C)N1 (centres unmarked) | 17.4 |
| CSCCC(=O)N1CCCC(CNC(=O)c2ccccc2Cl)C1 (centres unmarked) | 8.78 |
| COc1ccc2[nH]c(=O)c(CNc3ccc(C)cc3C)cc2c1 | 5.37 |
| COc1ccc(Cc2n[nH]c(=O)c3ccccc23)cc1OC | 2.57 |
| NC(=O)c1cc2ccccc2o/c1=N/NC(=O)c1cccc(F)c1 | 6.98 |
| O=C(NCC1CC1)C1(C(F)(F)F)CC(CCc2ccccc2)CCCO1 (centres unmarked) | 13.7 |
| Cn1nc(N)c2c1N=P(N1CCOCC1)(N1CCOCC1)N=C2c1ccccc1 | 8.58 |
| Cc1cc(C(=O)COC(=O)c2ccc[nH]c2=O)c(C)n1C1CC1 | 2.46 |
| Cc1ccccc1-n1c(-c2ccncc2)n[nH]c1=S | 4.45 |
| COc1ccc(CN2CCN(CCSc3ccc(C)cc3)CC2)c(OC)c1OC.O=C(O)C(=O)O | -9.33 |
| CC(NC(=O)CNC(=O)c1cccc(Cl)c1)c1ccccc1 (centres unmarked) | 11.2 |
| Cc1ccc(CC(=O)Nc2cccc([N+](=O)[O-])c2)cc1 | 9.09 |
| CCn1cc(/C=N/NS(=O)(=O)c2ccc(OC)cc2)c(C)n1 | 8.95 |
| CCOC(=O)c1cc(-c2ccccc2)n[nH]1 | 15 |
| O=C1CC(N2CCSCC2)C(=O)N1c1ccccc1 (centres unmarked) | 17.6 |
| Cn1c(N)c(C(=O)CCl)c(=O)n(Cc2ccccc2)c1=O | 12.5 |
| CC(C)Oc1ccc(C(=O)CCN2CCOCC2)cc1 | 13.6 |
| O=C(O)CCC(=O)N(Cc1ccco1)c1nc(-c2ccccc2)cs1 | -5.17 |
| CCOc1cc(-c2nc(-c3ccc(OC)cc3)no2)cc(OCC)c1OCC | 9.95 |
| O=c1nc2ccccn2c2ccc(S(=O)(=O)N3CCCCC3)cc12 | 12.6 |

| Compound | hERG current change (%, negative = inhibition) at 1uM [%] |
| --- | --- |
| COc1cc(C(=O)NNC(=O)c2cc(C)[nH]n2)cc(OC)c1OC | 13.5 |
| O=C(CSc1nnc(CNc2ccccc2)o1)N1CCc2ccccc21 | 0.363 |
| CC(=O)c1cn(CC(=O)Nc2ccccc2C)c2ccccc12 | 19.2 |
| Cc1ccc(S(=O)(=O)CCC(=O)Nc2cccc(C)c2)cc1 | 12.4 |
| Cc1ccc(NC2CCCN(C(=O)CN3C(=O)CSC3=O)C2)cc1C (centres unmarked) | 12.7 |
| Cc1cccc(C)c1NC(=O)COC(=O)c1ccccc1Nc1ccccc1 | 12.3 |
| COc1cc(S(=O)(=O)N2CC(=O)Nc3ccccc32)ccc1NC(C)=O | 11.8 |
| Cc1ccn(-c2ccc(NC(=O)c3cccs3)cc2)n1 | 6.58 |
| Clc1ccccc1OCCCCN1CCNCC1.O=C(O)C(=O)O | 15.3 |
| COc1ccc(CNC(=O)Nc2cc(C)cc(C)c2)cc1 | 9.48 |
| Cc1ccc(/C=N/n2cnnc2)s1 | -13.5 |
| NC(=O)CC(NC(=O)c1cccc(Br)c1)c1ccc(N2CCC(Br)CC2)c([N+](=O)[O-])c1 (centres unmarked) | 10.7 |
| Cc1cccc(N2N=C(C(=O)N3CC(=O)Nc4ccccc43)CCC2=O)c1 | 12.8 |
| CCSC1=NC2(CCCCC2)[NH2+]c2sc3c(c21)CCCC3.[I-] | 13.7 |
| Cc1ccc(S(=O)(=O)N2CCN(S(=O)(=O)N3CCOCC3)CC2)cc1C | 8.51 |
| Nc1ncnc(NNC(=O)CNC(=O)c2c(F)cccc2Cl)c1[N+](=O)[O-] | 9.74 |
| Cc1cc(O)cc2c1C(c1ccc(F)cc1)CC1(CC(C)(C)NC(=S)N1)O2 (centres unmarked) | 13.2 |
| CCOC(=O)Cn1cnc(-c2ccc([N+](=O)[O-])cc2)c1 | 5.86 |
| CC(C)c1nn2c(=O)cc(CSc3ccccc3NC(=O)c3ccccc3F)nc2s1 | 4.94 |
| COC(=O)CN(n1cnnc1)S(=O)(=O)c1ccc(C)cc1 | 10.2 |
| COc1cccc(C(=O)COC(=O)c2ccc(NC(=O)c3ccccc3)cc2)c1 | 13.7 |
| Cc1ccccc1CN(C)C(C)C(=O)Nc1ccccc1F (centres unmarked) | 7.42 |
| COC(=O)[C@H]1[C@@H](C)N(Cc2ccccc2)C(=O)N[C@H]1c1ccccc1 | 10.2 |

| Compound | hERG current change (%, negative = inhibition) at 1uM [%] |
| --- | --- |
| COCCOc1ccc(C(F)(F)F)cc1NC(=O)c1ccc(C(F)(F)F)cc1 | 4.7 |
| Cc1nc(-c2cccc(NC(=O)c3ccc(-n4cccn4)cc3)c2)cs1 | 12.6 |
| Cc1cc(C(=O)N2CCN(C(c3ccccc3)c3ccccc3)CC2)no1 | 4.49 |
| O=C(CS(=O)(=O)c1cn(CC(=O)N2CCOCC2)c2ccccc12)Nc1ccccc1 | 9.5 |
| CCOC(=O)CNC(=O)C1CCC(CNS(=O)(=O)c2cccc3nsnc23)CC1 (centres unmarked) | 19.5 |
| Cc1ccc(O)c(CP(=O)(c2ccccc2)c2ccccc2)c1 | 3.31 |
| CC1=NN(C(=O)CCc2ccc3c(c2)OCO3)C(O)(C(F)(F)F)C1 (centres unmarked) | 19.1 |
| CC(Nc1ccccc1CO)C(=O)Nc1cccc(Cl)c1Cl (centres unmarked) | 11.4 |
| COc1ccc(-c2c(C#N)c(C)nc3c2C(=O)c2ccccc2-3)cc1 | 7.82 |
| Cn1c(=O)n(Cc2ccc(Br)cc2)c2ccccc21 | 6.61 |
| COc1ccc(NC(=O)C/C(C)=N/NC(=O)CCc2ccccc2)c(OC)c1 | 11.6 |
| COc1ccccc1N(C(=O)NCc1ccccc1)C1=NCC(C)S1 (centres unmarked) | 17.5 |
| CC(=O)c1c(C)[nH]c(C(=O)COC(=O)CN(C)S(=O)(=O)c2ccc(Cl)cc2)c1C | 4.01 |
| COC(=O)c1ccc(OC)c(CSc2nnc(COc3ccc(Cl)cc3)o2)c1 | -9.46 |
| COC(=O)c1ccc(Cn2nnc3ccccc32)cc1 | 12 |
| COc1ccc(S(=O)(=O)NCC2CCC(C(=O)NCCCN3CCCC3=O)CC2)cc1 (centres unmarked) | 17 |
| O=C(O)Cc1ccc(NC(=O)Cc2ccc3ccccc3c2)cc1 | 15.2 |
| CSc1ccccc1NC(=O)CN(C)CC(=O)Nc1ccc(N2CCOCC2)cc1 | -4.34 |
| COC(=O)C1C(c2ccc(Br)cc2)Nc2nnc(C(F)(F)F)n2C1(C)O.Cl (centres unmarked) | 1.93 |
| Cc1ccccc1NC(=O)c1ccc(NC(=O)C2CCCO2)cc1 (centres unmarked) | 8.6 |
| Cc1ccc(C(=O)Nc2ccc(NC(=O)c3ccco3)c(C)c2)cc1 | 11 |
| CCN(Cc1ccccc1)Cc1nnnn1Cc1ccccc1 | 8.8 |
| O=[N+]([O-])c1ccc(S(=O)(=O)Nc2cccc(-c3ccc(N4CCCC4)nn3)c2)cc1 | 9.9 |

| Compound | hERG current change (%, negative = inhibition) at 1uM [%] |
| --- | --- |
| COc1ccc2c(=O)cc(-c3cccnc3)oc2c1OC | 18.5 |
| CC(C)(C)OC(=O)N1CCN(c2ccc(CNC(=O)c3ccc(Cl)cc3)cc2)CC1 | -1.45 |
| CCC(C)(C)n1c(=O)[nH]c2c(c1=O)CCC2 | 12.3 |
| Nn1cc(-c2ccccc2)nc1SCC(=O)N1CCN(S(=O)(=O)c2ccc(Cl)cc2)CC1 | 5.56 |
| Cc1ccc(/C=N/NC(=O)c2ccc3nc[nH]c3c2)o1 | 11.9 |
| CCCN1Cc2cccc(C(=O)NCCc3cccc(C)c3)c2C1=O | 8.02 |
| COc1ccc([N+](=O)[O-])cc1N(CC(O)CN(CC(C)C)CC(C)C)S(=O)(=O)c1ccccc1 (centres unmarked) | 2.21 |
| Cc1cc(Nc2ccc(C)c(C)c2)c2ccccc2n1 | -11.4 |
| CC(=O)c1cccc(NC(=O)/C(=C\c2ccco2)NC(=O)c2cccs2)c1 | 0.258 |
| CN(C(=O)c1ccccc1Br)C1CCS(=O)(=O)C1 (centres unmarked) | 4.02 |
| Cc1ccc(C)c(CN2CCC(n3nccc3NC(=O)CCCc3ccccc3)CC2)c1 | -11.4 |
| COCCCN1C(=O)N(c2ccccc2)C(=O)C1CC(=O)Nc1ccc(F)cc1 (centres unmarked) | 16.5 |
| CC1CC(C)(C)N(C(=O)CN2C(=O)CCC2=O)c2ccccc21 (centres unmarked) | 12.5 |
| CCCNC(=O)c1nc2ncc(Br)cn2n1 | -13.7 |
| COc1ccc(CCNS(=O)(=O)c2ccc3c(c2)OCCO3)cc1OC | 10.5 |
| Cc1ccc(NC(=O)N(C)c2ccccc2)cc1 | 14.9 |
| Cc1[nH]c2c(C)cccc2c(=O)c1CN1CCCCCC1 | 11.3 |
| O=C(Cc1ccccc1Cl)Nc1ccc(S(=O)(=O)N2CCOCC2)cc1 | 6.89 |
| CC(C)OP(=O)(OC(C)C)C(Nc1cccc(C(=O)O)c1)c1ccccc1 (centres unmarked) | 8.41 |
| COc1cc(NC(=O)c2cnc(N)o2)cc(C(=O)Nc2cccc(C(F)(F)F)c2)c1 | 8.84 |
